# From PubChem BioAssay AID1508642 (National Center for Advancing Translational Sciences (NCATS), 2021)
# In all, about 43,000 compounds went through this assay and about 200 (0.47%) were called active. Not shown: some 12% with an inconclusive outcome. Calls come from the whole dose curve; as a rule, active = well fitted cell-killing curve with a large enough effect; inconclusive = small, poorly fitted or top-dose-only effect, or effect the other way; inactive = flat fitted curve, though single readings scatter. The list shows a part of the results.
# Test: Cell viability qHTS assay in S16 Pmp22-F2sN cells; note: nearly all actives have a fitted effect of over 65% in size
# Conditions: S16 Pmp22-F2sN Schwann cells (luciferase reporters placed in the Pmp22 gene) viability, CellTiter-Glo, 24 h; series mostly up to 57.5 µM; activity change, negative = cytotoxicity: at the top concentration
# Method in brief: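 Seed 500-1,000 S16 Pmp22-F2sN cells per well in phenol-red-free DMEM with 10% heat-inactivated FBS; pin-add 23 nL compound; incubate 24 h at 37C; add CellTiter-Glo, wait 15 min protected from light; read luminescence.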
# % is set by controls: 0 for no effect and ±100 for the full control effect.
row,SMILES,"activity change, negative = cytotoxicity"
1,CCc1ccccc1NS(=O)(=O)c1ccc2[nH]cc(C(=O)N3CCCCC3)c(=O)c2c1,inactive: 4.94%
2,Cc1nc2c(-c3ccccc3)c(C)nn2c(C)c1CCC(=O)NC(C)c1ccccc1 (configuration not stated),inactive: 12.8%
3,COc1cccc(CNC(=O)C2CCCN(S(=O)(=O)c3ccc4c(ccn4C)c3)C2)c1 (configuration not stated),inactive: -27%
4,Cn1c(=O)n(-c2ccc(F)c(Cl)c2)c(=O)c2sc3ccccc3c21,inactive: 4%
5,CCOC(=O)c1c(Nc2ccc(C)cc2)nnc(-c2ccccc2)c1-c1ccccc1,inactive: -24.4%
6,CC1=C(C(=O)OC2CCCCCC2)C(c2c(F)cccc2Cl)CC(=O)N1 (configuration not stated),inactive: 19.7%
7,CCN(CCCNC(=O)c1c(C)oc2ncn(CC(C)C)c(=O)c12)Cc1ccccc1,inactive: -17.5%
8,Cc1ccc(Cl)cc1NC(=O)c1oc2c(c1C)-c1[nH]ncc1CC2,inactive: -2.38%
9,COc1ccc(N(Cc2cccs2)C(=O)COc2cccc(Cl)c2)cc1,inactive: -6.26%
10,CCOC(=O)c1cnc2c(Cl)cccc2c1NCCN1CCOCC1,inactive: 6.01%
11,COC(=O)CCSc1nc2sc3c(c2c(=O)n1Cc1ccccc1)CCC(C(C)(C)C)C3 (configuration not stated),inactive: -1.57%
12,COc1ccc(NCc2cc3cc4c(cc3n(CC(=O)Nc3ccc(F)cc3F)c2=O)OCO4)cc1,inactive: -25.3%
13,CCc1ccccc1NS(=O)(=O)c1ccc(OC)c2ncccc12,inactive: -25.5%
14,CCn1c2ccccc2c2nnc(N3CCN(c4cc(C)ccc4C)CC3)nc21,inactive: -5.76%
15,Fc1ccc(-c2nc(Nc3cccc(Cl)c3)nc3c2COc2ccccc2-3)cc1,inactive: -17.6%
16,Cc1ccc(-n2ncc3c(NCCCN4CCOCC4)ncnc32)cc1,inactive: 0.677%
17,COc1cccc(-n2c(=O)c3c(C)c(C(=O)N(C)C)sc3n(Cc3ccc(F)cc3Cl)c2=O)c1,inactive: -5.25%
18,COc1ccc(NC(=O)C2Cc3ccccc3N2C(=O)c2ccccc2)c(OC)c1 (configuration not stated),inactive: 1.97%
19,CCOc1ccccc1NC(=O)c1cc2c(Cl)nc3ccccc3c2s1,inactive: -3.31%
20,COc1ccc(N2CCN(S(=O)(=O)c3ccc4c(c3)CC(C)N4C(C)=O)CC2)cc1 (configuration not stated),inactive: -9.96%
21,O=C(Nc1ccc(Br)cc1F)c1cc(S(=O)(=O)NCc2ccc(F)cc2)ccc1F,inactive: -6.78%
22,COc1ccc(NC(=O)c2cc3c(s2)-c2c(C)cccc2OC3)c(OC)c1,inactive: -10.1%
23,COc1ccc(CCNC(=O)c2cc3c(-c4ccccc4F)nn(C)c3s2)c(OC)c1,inactive: -8.51%
24,CSc1ncc(C(=O)Nc2ccccc2C(=O)c2ccccc2)c(C(F)(F)F)n1,inactive: -6.39%
25,Fc1ccc(-n2cc(-c3ccccc3)c3c(NC4CCCCC4)ncnc32)cc1,inactive: -23.1%
26,CCOC(=O)c1cccc(NC(=O)c2cc3c(=O)n(Cc4ccccc4)ccc3nc2C)c1,inactive: 0.0387%
27,CCCCNc1nc(Oc2ccc(=O)[nH]n2)nc(N(C)C)n1,inactive: -13.6%
